PubChem BioAssay AID1508642 (National Center for Advancing Translational Sciences (NCATS), 2021)
Hit rate of the full screen: of about 43,000 compounds, about 200 (0.47%) were called active. Not shown: some 12% with an inconclusive outcome. The call rests on the fitted dose curve; in most records, active means well fitted cell-killing curve with a large enough effect; inconclusive means small, poorly fitted or top-dose-only effect, or effect the other way; inactive means flat fitted curve, though single readings scatter. The list shows a part of the results.

Assay: Cell viability qHTS assay in S16 Pmp22-F2sN cells; further: nearly all actives have a fitted effect of over 65% in size
Conditions: S16 Pmp22-F2sN Schwann cells (luciferase reporters placed in the Pmp22 gene) viability, CellTiter-Glo, 24 h; series mostly up to 57.5 µM; activity change, negative = cytotoxicity: at the top concentration
In short: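 Rat S16 Schwann reporter line, 24 h treatment with library compounds delivered at 23 nL per well. Cell viability by CellTiter-Glo luminescence.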
On the % scale 0 is the no-effect control and ±100 the full control effect; potency means the concentration at half of the fitted maximal effect.

| SMILES | activity change, negative = cytotoxicity | Potency |
| --- | --- | --- |
| Cc1ccc(CO)cc1Nc1ncnc2onc(-c3ccc(F)cc3)c12 | inactive: 15.2% | – |
| CCOc1cccc2cc(S(=O)(=O)c3ccccc3F)c(=O)oc12 | inactive: 0.407% | – |
| CCS(=O)(=O)N1CC(=O)N(c2ccc(Cl)cc2)C(C)(C(=O)NC2CCCCC2)C1 (configuration not stated) | inactive: 5.35% | – |
| CC(=O)Nc1ccccc1-c1nc2ccccc2n(CC(=O)Nc2cccc(C(F)(F)F)c2)c1=O | inactive: 1.88% | – |
| COc1ccc(/C=C/C(=O)Nc2nc(-c3cccs3)ns2)cc1OC | inactive: 15.3% | – |
| CCOc1ccc(CNC(=O)c2ccc3c(c2)nc2n3CCOC2)cc1OC | inactive: 0.191% | – |
| CCc1cccc(NC(=O)C(Cc2ccccc2)n2cccc2)c1 (configuration not stated) | inactive: -3.87% | – |
| COc1ccc(N2CC(NC(=O)c3ccc(S(=O)(=O)N4CCCCC4)cc3)CC2=O)cc1 (configuration not stated) | inactive: 6.9% | – |
| CCc1ccc(NC(=O)CN(c2cc(C)cc(C)c2)S(=O)(=O)c2c(C)[nH]c(=O)[nH]c2=O)cc1 | inactive: 3.83% | – |
| CC1=C(C(=O)Nc2ccc(F)cc2F)C2(CCN(C(C)C)CC2)OC1=O | inactive: -0.155% | – |
| CCCOc1cccc(C(=O)Nc2cc(-c3ccccc3)no2)c1 | inactive: -24.9% | – |
| CC1=C(c2ccc(C(C)C)cc2)S(=O)(=O)N=C1N1CCC(C(=O)NCCc2ccco2)CC1 | inactive: -4.26% | – |
| COc1cccc(-c2nc(SCC(=O)NC3CCCC3)c(-c3ccc(C)cc3)[nH]2)c1 | inactive: -7.52% | – |
| CCN(CC)C(=O)CSc1nc(-c2ccc(C)cc2)nc2c1Cc1c(CO)cnc(C)c1O2 | – | active: 10 µM |
| COc1cccc(NC(=O)CC2Nc3cc(C)c(C)cc3NC2=O)c1 (configuration not stated) | inactive: -9.92% | – |
| Cc1ccc(C)c(N2CCN(C(=O)CSCc3ccccc3Cl)CC2)c1 | inactive: -16.9% | – |
| Cc1ccc(CNC(=O)CC2Oc3ccc(Cl)cc3NC2=O)cc1 (configuration not stated) | inactive: 0.0775% | – |
| CCOc1ccc(NS(=O)(=O)c2ccc3c4c(cccc24)C(=O)N3)cc1 | inactive: -26.8% | – |
| Cc1cccc(NC(=O)CCS(=O)(=O)c2cc(Br)cc3c2N(C(=O)C2CC2)CC3)c1 | inactive: 6.17% | – |
| COc1ccccc1NC(=O)COc1ccc(-c2nn(C)c(=O)c3ccccc23)cc1 | inactive: 20.4% | – |
| CC(=O)N1c2ccc(S(=O)(=O)Nc3ccc(Cl)cc3C)cc2CC1C (configuration not stated) | inactive: -20.4% | – |
| COc1cc(OC)cc(-c2nc3n(n2)C(c2ccccc2)C(C(N)=O)=C(C)N3)c1 (configuration not stated) | inactive: 2.16% | – |
| COc1cccc(CNC(=O)c2cc(Sc3cccc(Cl)c3)nc3ccccc23)c1 | inactive: 11.3% | – |
| COc1ccc(-c2c(C)c3ccc(O)c(CN4CCN(CCO)CC4)c3oc2=O)cc1OC | inactive: -0.286% | – |

| SMILES | activity change, negative = cytotoxicity | Potency |
| --- | --- | --- |
| CCOC(=O)c1c(NC(=O)COc2cccc(C)c2C)sc2c1CCC(CC)C2 (configuration not stated) | inactive: 6.32% | – |
| Cc1c(C(=O)N2CCOCC2)oc2c1-c1nn(CC(=O)NCc3cccc(Cl)c3)cc1CC2 | inactive: 2.7% | – |
| CCCCN(CC)CCCNC(=O)Cn1ncc2c([nH]c3ccc(C)cc32)c1=O | inactive: 5.95% | – |
| O=c1c2cn[nH]c2nc(SCc2c(F)cccc2F)n1-c1ccc(Cl)cc1 | inactive: 1.5% | – |
| O=C(Cn1cnc2ccccc2c1=O)NCCC(=O)Nc1ccc(F)cc1 | inactive: 8.95% | – |
| CC(C)COc1ccc(C(=O)Nc2cc(-c3ccccc3)no2)cc1 | inactive: -2.49% | – |
| COc1cccc(N2CCN(S(=O)(=O)c3cc(-c4cc(C)no4)ccc3C)CC2)c1 | inactive: 6.42% | – |
| COc1ccc(N(CC(=O)N2CCN(c3ccc(F)cc3)CC2)S(=O)(=O)c2c(C)noc2C)cc1 | inactive: 0.325% | – |
| CCOc1cccc(C(=O)Nc2nc3c(s2)CC(C(C)(C)C)CC3)c1 (configuration not stated) | inactive: 1.07% | – |
| O=C(NCc1ccco1)c1ccc2c(c1)N(Cc1ccc(F)cc1)C(=O)c1ccccc1S2(=O)=O | inactive: -1.57% | – |
| CCN(C(=O)CSc1nc2ccccc2n1Cc1ccc(F)cc1Cl)c1ccccc1 | inactive: -17.8% | – |
| COc1ccc(CCNC(=O)c2c(C)oc3ncn(C)c(=O)c23)c(OC)c1 | inactive: -0.172% | – |
| CC(=O)Nc1ccc(N(C(=O)Cn2nnc3ccccc32)C(C(=O)NCc2ccccc2)c2ccc(C)cc2)cc1 (configuration not stated) | inactive: 0.437% | – |
| CN(C)c1ccc(Nc2ncnc3sc4c(c23)CCCC4)cc1 | inactive: -14.9% | – |
| COc1ccc(CC(=O)NCc2nc3cccnc3n2Cc2ccccc2)cc1 | inactive: 14.1% | – |
| COC(=O)c1ccccc1NC(=O)CCCn1c(=O)c2cccn2c2cccnc21 | inactive: 17.8% | – |
| CCOC(=O)C(Cc1c[nH]c2ccccc12)NC(=O)COc1ccc(CC)cc1 (configuration not stated) | inactive: 8.24% | – |
| Cc1cc(NC(=O)CN2CCC(C)CC2)nc2c1c(=O)oc1ccccc12 | inactive: 20.1% | – |
| Cc1ccc(Cl)cc1NC(=O)CN1C(=O)CCc2ccccc21 | inactive: -0.298% | – |
| COc1ccc(C)cc1N(C)C(=O)CCc1nc(-c2ccccc2F)no1 | inactive: -8.9% | – |
| COc1ccccc1CCNC(=O)C(C)Sc1nc(-c2ccccc2)cc(C(F)(F)F)n1 (configuration not stated) | inactive: -8.02% | – |
| COc1ccc(C(=O)Nc2nc(-c3nnn(-c4ccc(C(C)C)cc4)c3C)ns2)cc1 | inactive: -23.3% | – |
| Cc1noc(/C=C/c2ccccc2F)c1S(=O)(=O)N1CCC(C(=O)N2CCOc3ccccc32)CC1 | inactive: 13.2% | – |
